Test results reported in the supplement of paper PMC6206098.
± gives the uncertainty stated by the source. The sequences are guide strands of siRNAs; only the seed at positions 2 to 7 varies.

Columns and labels:
H460 = assay: cell viability relative to lipid-only control; higher = less toxic; conditions: concentration: 10 nM; 96 h; Homo sapiens
M565 = assay: as above; conditions: concentration: 10 nM; 96 h; Mus musculus
HeyA8 = assay: as above; conditions: concentration: 10 nM; 96 h; Homo sapiens
3LL = assay: cell viability relative to siNT1 control; HeyA8 human ovarian and H460 human lung cancer; M565 mouse liver and 3LL mouse lung cancer; siNT1 is a non-toxic control siRNA; higher = less toxic; conditions: concentration: 10 nM; 96 h; Mus musculus
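Wherever cell viability relative to lipid-only control is given: reverse lipid transfection in 384-well plates, in triplicate, of duplexes on a non-toxic 19mer backbone with passenger strand 2′-O-methylated at positions 1 and 2, luminescence viability read-out.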
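Wherever cell viability relative to siNT1 control is given: Luminescence-based viability of cells reverse transfected in 384-well plates with lipid-complexed siRNAs built on a non-toxic 19mer backbone whose passenger strand carries 2′-O-methyl groups at positions 1 and 2, triplicates.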

Sequence	cell viability (H460) [%]	cell viability (M565) [%]	cell viability (HeyA8) [%]	cell viability (3LL) [%]
UCCGAGGACAUGUAAACCAAA	50.5 ± 4.5	78.5 ± 13	62.4 ± 7.6	88 ± 17
UGGAUAUACAUGUAAACCAAA	61 ± 4.2	71.9 ± 18	54.8 ± 12	88.4 ± 2.1
UCAGUCGACAUGUAAACCAAA	51.1 ± 6.4	47.1 ± 4.2	71.8 ± 8.5	86.9 ± 16
UCAACCCACAUGUAAACCAAA	44.7 ± 5.4	49.4 ± 4.9	58.9 ± 3.3	49.6 ± 13
UCCGAUUACAUGUAAACCAAA	76.7 ± 14	91.7 ± 19	79.2 ± 8.9	86.9 ± 22
UUAAACCACAUGUAAACCAAA	38.3 ± 3.4	97.3 ± 12	64 ± 3.5	77.5 ± 11
UAUUUAAACAUGUAAACCAAA	95.9 ± 3.8	99.5 ± 7	98 ± 17	112 ± 15
UUUAGAAACAUGUAAACCAAA	105 ± 5.8	97.4 ± 10	101 ± 10	105 ± 9.5
UGCCCACACAUGUAAACCAAA	52.7 ± 5.3	27 ± 3.6	40.8 ± 2	43.7 ± 7
UAUCGGGACAUGUAAACCAAA	92.7 ± 18	52.2 ± 13	101 ± 9	91 ± 5.9
UUAACAUACAUGUAAACCAAA	77.8 ± 7.9	111 ± 10	97.8 ± 1.8	100 ± 15
UCGAGUGACAUGUAAACCAAA	82.5 ± 16	63.3 ± 0.64	85.1 ± 1.6	90.6 ± 22
UUAACCCACAUGUAAACCAAA	41.8 ± 4.6	53.2 ± 6	65.9 ± 7.4	31.5 ± 5.7
UGUAAUGACAUGUAAACCAAA	75.2 ± 5.7	71.6 ± 22	78.3 ± 7.2	80.8 ± 3
UUUCGUCACAUGUAAACCAAA	55.4 ± 3.7	54.6 ± 7.9	74.8 ± 2.8	83 ± 8.2
UCCACAGACAUGUAAACCAAA	45.3 ± 3.9	54.4 ± 12	79.6 ± 2.5	96.7 ± 26
UGGGACGACAUGUAAACCAAA	54.6 ± 5.2	38.2 ± 5	90.8 ± 9.2	97.7 ± 6
UUAUUCCACAUGUAAACCAAA	26 ± 2.1	33.1 ± 3.4	43.4 ± 1.8	11.7 ± 2.7
UAAGGAUACAUGUAAACCAAA	73.6 ± 14	33.2 ± 4.7	77.6 ± 2.3	80 ± 6.2
UCUUCAGACAUGUAAACCAAA	61 ± 2.8	77.8 ± 10	86.6 ± 10	90.3 ± 12

Sequence	cell viability (H460) [%]	cell viability (M565) [%]	cell viability (HeyA8) [%]	cell viability (3LL) [%]
UACAGGGACAUGUAAACCAAA	58 ± 11	14 ± 5.3	49.1 ± 2.1	10.8 ± 5.7
UCAUACAACAUGUAAACCAAA	36.4 ± 6.8	81 ± 20	88.5 ± 4.5	94.4 ± 18
UAAAAGUACAUGUAAACCAAA	59.7 ± 1.5	96.7 ± 12	78.4 ± 3.5	110 ± 13
UGGAGACACAUGUAAACCAAA	25.2 ± 1.3	26.6 ± 5.8	54.2 ± 5.6	48.3 ± 2.6
UACCUGCACAUGUAAACCAAA	25.2 ± 6.3	14.9 ± 7.6	18 ± 2.1	12.9 ± 6.7
UGGCUUGACAUGUAAACCAAA	44.6 ± 5.4	12.7 ± 4.7	34 ± 1.7	43.3 ± 4.2
UUAGUCCACAUGUAAACCAAA	56.8 ± 9.8	22.2 ± 13	32.9 ± 3.8	15.4 ± 1.6
UUUUGUAACAUGUAAACCAAA	75 ± 13	108 ± 12	101 ± 3.4	99.7 ± 3.6
UGGCCGAACAUGUAAACCAAA	33.6 ± 0.8	33 ± 2.8	16.5 ± 1.9	65.1 ± 7.2
UUGAGGCACAUGUAAACCAAA	30.9 ± 1.2	10.6 ± 2.5	20 ± 2.3	1.95 ± 0.2
UGUACGAACAUGUAAACCAAA	112 ± 10	81.4 ± 10	97.1 ± 7.2	97.8 ± 8.1
UAGCUACACAUGUAAACCAAA	70.4 ± 9.7	24.5 ± 1.1	40.3 ± 3.2	71.3 ± 9.4
UAUGUAUACAUGUAAACCAAA	69 ± 5.7	89 ± 12	86.8 ± 4.5	27 ± 5.8
UAGGGCAACAUGUAAACCAAA	58.4 ± 4	29.6 ± 10	36.9 ± 3.3	74.5 ± 19
UCGGGCCACAUGUAAACCAAA	18.2 ± 2.5	4.07 ± 0.048	4.52 ± 0.096	8.41 ± 2.9
UUUUGUCACAUGUAAACCAAA	57.4 ± 5.6	69.2 ± 7.9	76.3 ± 9.9	85.3 ± 4.2
UCCGAUCACAUGUAAACCAAA	46.5 ± 1.4	48.2 ± 12	66.9 ± 6	89.3 ± 30
UUGAUCUACAUGUAAACCAAA	92.2 ± 13	79.8 ± 20	79.7 ± 1	92.4 ± 1.8
UUGACCGACAUGUAAACCAAA	65.2 ± 9.5	47.2 ± 8.9	71.9 ± 8.3	61.5 ± 6.6
UGGCUACACAUGUAAACCAAA	23.9 ± 1.7	33.5 ± 7.3	3.97 ± 0.41	42.6 ± 8.9

Sequence	cell viability (H460) [%]	cell viability (M565) [%]	cell viability (HeyA8) [%]	cell viability (3LL) [%]
UUGCCUGACAUGUAAACCAAA	17.1 ± 0.89	53.4 ± 4.4	5.96 ± 0.57	45.5 ± 7.9
UGAUCCAACAUGUAAACCAAA	54.5 ± 4.5	28.4 ± 4.1	80.1 ± 2.1	61.9 ± 11
UUAUGAUACAUGUAAACCAAA	60.7 ± 1.5	55.6 ± 3.9	58.3 ± 6.7	72.5 ± 4
UAUUCGAACAUGUAAACCAAA	67.3 ± 3.5	85.7 ± 3.4	99.6 ± 12	99.3 ± 11
UUUUAGCACAUGUAAACCAAA	62.9 ± 1.9	67.2 ± 9.4	74.5 ± 4	34.1 ± 7.8
UUAACACACAUGUAAACCAAA	73.6 ± 13	74.3 ± 6.7	81.1 ± 8.8	75.1 ± 6.8
UGAGCCGACAUGUAAACCAAA	77.2 ± 10	16.8 ± 5.2	81.2 ± 4.6	63.5 ± 13
UAUUUAUACAUGUAAACCAAA	81 ± 6.2	82.1 ± 10	95.1 ± 10	107 ± 16
UUAACGAACAUGUAAACCAAA	79.3 ± 10	117 ± 24	98.7 ± 8.2	102 ± 5.5
UCGGUUGACAUGUAAACCAAA	62.4 ± 4.6	72.5 ± 8.8	72.9 ± 6.8	95.2 ± 12
UAUAUGAACAUGUAAACCAAA	59.6 ± 2.3	89 ± 6.5	98.6 ± 9.7	106 ± 15
UCCCUCGACAUGUAAACCAAA	46.2 ± 6.5	58.9 ± 16	76.2 ± 1.6	92.9 ± 14
UUCGUAUACAUGUAAACCAAA	61.2 ± 9.1	86 ± 3.5	73.9 ± 10	101 ± 16
UGACGACACAUGUAAACCAAA	38.9 ± 5.8	13.5 ± 2.5	46 ± 4.2	37.2 ± 2.2
UGCUCACACAUGUAAACCAAA	65.5 ± 8.4	84.6 ± 1.6	60.1 ± 1	56.1 ± 8.9
UCUGAAAACAUGUAAACCAAA	71.6 ± 13	76.8 ± 13	90.9 ± 8	99.3 ± 19
UGGAGAAACAUGUAAACCAAA	72.2 ± 9.9	40.6 ± 11	51.6 ± 25	84.2 ± 5.8
UCUAGUGACAUGUAAACCAAA	72.5 ± 5.4	76.5 ± 15	90.5 ± 12	97.2 ± 17
UACCCCCACAUGUAAACCAAA	14.6 ± 1.1	17.8 ± 3.2	19.3 ± 3.7	5.98 ± 1.5
